The labels stand for the following.
T1: UNK ZnF1-3 (human, UniProt Q9C0B0 31-174)
T1 sequence: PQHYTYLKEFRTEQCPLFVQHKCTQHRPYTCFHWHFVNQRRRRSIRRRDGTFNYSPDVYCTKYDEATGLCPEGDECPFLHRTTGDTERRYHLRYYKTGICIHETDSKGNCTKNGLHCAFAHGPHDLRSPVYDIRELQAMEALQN

B1: 44713415_44713535_765_CDS_ENSG00000105953_ENST00000222673|human|control|control (ssRNA)
RNA: GGGAGUUCUACAGUCCGACGAUCGGACCGCACAAGCCUGGCCAGCAGGGUCCGUUUCUCCUCAUUUGUGAACUGCAUGAUCCCAGGGGUCUCAAACUUCUGCCGGAUCCACUGGCACUGCUCCAGGUCAUUGAUGAACAUGAACAACAGAGGAUUGAGCAUCA
B2: 50195189_50195309_2254_ncRNA_ENSMUSG00000007850_ENSMUST00000123371|mouse|control|control (ssRNA)
RNA: GGGAGUUCUACAGUCCGACGAUCUAAAGACAGCCCAAUAAACUAGGGAUAAUUUUAAAGCCUAAAGUUUAAUUUGAAUGAAAUACAUUAACUGGGAAAAUUUAGAAGUUAUAGCAGAUUAUCAAUUAACUGGGAAUAGGAAAUCAACAGAGGAUUGAGCAUCA
B3: chr2:127629987:127629988:-_ENSMUSG00000027379_ENSMUST00000028858|mus_hu|FALSE|FALSE (ssRNA)
RNA: GGGAGUUCUACAGUCCGACGAUCACCAGAUGUUUCACACUUUGCUGUGAAUAUAGUUCCUUUUGGAAAAAGUUUCAUAUCUAUACUCUGACCCAGGUCAAUCAGUGCCAAGCCAGCAGAUAAAUCAUCUUCAUCAUCCUGUUCCAACAGAGGAUUGAGCAUCA
B4: chr1:6218034:6218035:+_ENSMUSG00000025907_ENSMUST00000027040|mus_mus|FALSE|FALSE (ssRNA)
RNA: GGGAGUUCUACAGUCCGACGAUCGAUUACAAGUGUCUUAUAUGCGCUUGCUUGAUAUUGGCAACUGAGUGGCAUUACUGGUGAAACUCAGAGAACCGGCAGCGCCUCCUCCGCCCGCGGCAGCAACACAGCCGGCGGCCCUCCCAACAGAGGAUUGAGCAUCA
B5: chr11:109260588:109260589:+_ENSMUSG00000020611_ENSMUST00000020930|mus_hu|FALSE|FALSE (ssRNA)
RNA: GGGAGUUCUACAGUCCGACGAUCCUAACCAGAGGACCUUCUCUAUGCAAAUUACAUGCCAAUACACCUUAAAAGAAAAUAAGACAAAAGUGAAUGAGUUUUUUCAUUCCAUAUUGCUUUCUUUGGUUGCAGAGCAAUCCAGUGCAACAGAGGAUUGAGCAUCA
B6: 3982040_3982353_830_CDS_ENSG00000167658_ENST00000309311|human|control|control (ssRNA)
RNA: GGGAGUUCUACAGUCCGACGAUCGUCAAAGUACCUGUCACCCCACAGCUUCUUCAUCAUGUCCUCUACUUUCUUGGCCCGCUCGGCAGGCCCCAACUGGCCCUCCCCCUUGGCGGCGAACUUGGCCACAUACAUCUCGGCAAACAACAGAGGAUUGAGCAUCA
B7: chr17:76047126:76047127:+_ENSG00000078687_ENST00000588847|hu_mus|FALSE|FALSE (ssRNA)
RNA: GGGAGUUCUACAGUCCGACGAUCUGUCUGCUUAACAGAAGCAGCUCCUCCCCAGUUACUCACAUUGUUGUCUUGGGGCUUAUGAGCCCAGUUCUGCUGGGGACCAGGCUUGAGAGACUCCCCCCAGUUUGUACCUGGAUUCACCAACAGAGGAUUGAGCAUCA
B8: chr3:160143891:160143892:+_ENSG00000113810_ENST00000344722|hu_hu|motif|central (ssRNA)
RNA: GGGAGUUCUACAGUCCGACGAUCAGCAAGUACAUUAGCUUCAAGUUCCUUAACUUGGACAUUCAAAUAUUCUUCUUGCUCGGUUAAACGCUGGAUGCUUGCAGUAAAUUUUUCUAGUGUGUUCCUCAUUUCUCGUUCACUAUGCAACAGAGGAUUGAGCAUCA
B9: chr14:68739401:68739402:-_ENSMUSG00000022054_ENSMUST00000022638|mus_hu|motif|central (ssRNA)
RNA: GGGAGUUCUACAGUCCGACGAUCUAUUGUGAUUGGGGGUCGGUGUGUAUACAGUGGCCCAGUGAUGCUUCCUGCAAAUGUGCGGAAUCUAGUCUCUUCACCCUCCAGGAGUUUUCUGUACGCAGCGAUUUCUAUAUCCAGAGCCAACAGAGGAUUGAGCAUCA
B10: 135161848_135163709_6480_CDS_ENSG00000107290_ENST00000224140|human|control|control (ssRNA)
RNA: GGGAGUUCUACAGUCCGACGAUCAACUUUGGAAAUGUUUUCAUCUAAUUCUUGCCUCUGUAUUUCCCGUCCACCUCGGCAUAGAGCUCGCUGCCGGGAAAGCUCAUCCAGCUGAUAAUCUAGAAAUUCCUUUCUUUUAUGCAUCAACAGAGGAUUGAGCAUCA
B11: chr4:25749455:25749456:-_ENSG00000091490_ENST00000264868|hu_hu|hu_hu_hu_mus_False|28_58 (ssRNA)
RNA: GGGAGUUCUACAGUCCGACGAUCGCACUAUGACCUCUAGAAAAAUCCACAGGGGGAAAAAAUGUAAACCAAUGUACAAAGCUAUUGCCUUCCCUGUGUGUGGAGUGACAAACAAUUGGCUCCUUCUAGCUGCUGGAUUUGGGACAACAGAGGAUUGAGCAUCA
B12: chr5:145543945:145543946:-_ENSG00000133706_ENST00000545646|hu_hu|hu_hu_hu_mus_True|48_58 (ssRNA)
RNA: GGGAGUUCUACAGUCCGACGAUCCUGAACGGCCAGUGGUGGGAAAUAAUCAAGCCAGUGCUCUGCUUCAGAAAACUUUACUAUCUCUUCAUCAGACAGCCCAAGGGAUUUCAUAAUGUCCCACUGGUACUUAGAAGAUCCUGCCAACAGAGGAUUGAGCAUCA
B13: chr6:57672499:57672500:+_ENSMUSG00000062190_ENSMUST00000050077|mus_mus|motif|central (ssRNA)
RNA: GGGAGUUCUACAGUCCGACGAUCUCGAAGCAGGUAGGUCUGGUCACCAGUGACCCGGUACAGCUGCAGGUACAAAAGUGCGGUGCCUGUCCAACCAGUAUAUGCAGAGCAGUCAUGAGGGUCCGCUGUCUUCAGUCCUUCCUCCAACAGAGGAUUGAGCAUCA
B14: 109692034_109692919_6190_CDS_ENSG00000148143_ENST00000277225|human|control|control (ssRNA)
RNA: GGGAGUUCUACAGUCCGACGAUCGAGGUGAUUGCAGAUGGCUCGGAGCGUUGGGUGCACUUCCACACAGAAUUUACAUUUGUAGCCCACCACUUUCCUCUCCUUGAUCUUUGGCACCUCUUCUAAGUGACCAAAAGGCCUCUCCAACAGAGGAUUGAGCAUCA
B15: 101158937_101159057_933_3pUTR_ENSMUSG00000056537_ENSMUST00000070705|mouse|control|control (ssRNA)
RNA: GGGAGUUCUACAGUCCGACGAUCUGCAGAGGGGACCUGCUUCUUUCAGCUCUUGCUCUGGUUCUCCGAUGCUCUGGGCUCCGGCUUCUUGCCCUCCUCUGAGCUCUGGUGGUCGGCACUUCUGUUACUGCUUCAGCUGAAUUGCAACAGAGGAUUGAGCAUCA
B16: 127815162_127815468_294_3pUTR_ENSMUSG00000014498_ENSMUST00000014642|mouse|control|control (ssRNA)
RNA: GGGAGUUCUACAGUCCGACGAUCAGGCAGCGGCACGAUGAAGAGGGGUCAGCCACAGUGUGUCCUUAGCGUUGACGUUAGCACCUGACAUCAGUAGCAACUGGAGGAUGGGGACAUCGCCUACGUAGGCAGCAGCAUGCAAUGCAACAGAGGAUUGAGCAUCA
B17: chr10:79329780:79329781:-_ENSMUSG00000035835_ENSMUST00000166057|mus_mus|FALSE|FALSE (ssRNA)
RNA: GGGAGUUCUACAGUCCGACGAUCGGAUGACAUCUGUCACCAGAGCCGUGGCACACAGGCCAAACACGUGUACACCUGAGGACGAGAGGGCCAGGCCAGGGGAAGGGAGCAGGGGGGAGGGGUGUUCCCCCAAGCCUGUCUACACAACAGAGGAUUGAGCAUCA
B18: 42840347_42840467_1788_3pUTR_ENSG00000105429_ENST00000334370|human|control|control (ssRNA)
RNA: GGGAGUUCUACAGUCCGACGAUCCCAGCAGGGCACGGGAGGGGGCAUGGAACACCAUGGAGUGGCCAGUGGCAGCAGGGGGCCGUCCGCCUGCCGGAAUCACCUGCUCCCAAUAGCCCCCGCUGGUGCUGUCAAGGCGGAAACCAACAGAGGAUUGAGCAUCA
B19: chr2:241070358:241070359:-_ENSG00000172428_ENST00000607357|hu_mus|motif|central (ssRNA)
RNA: GGGAGUUCUACAGUCCGACGAUCCAGAGACAUCAGUACCCAGUUGGUUCAGACAGUUCCUCUAUUGGUUGACAAGGUCUUCAUUUCGGGUGAUAUCAACACGGUGUCUACAAUCAGCUGGUCGUGUCCCGAGAGACUCCAGACCAACAGAGGAUUGAGCAUCA
B20: chr4:141471443:141471444:+_ENSG00000179387_ENST00000323570|hu_mus|FALSE|FALSE (ssRNA)
RNA: GGGAGUUCUACAGUCCGACGAUCGAGCACAGCAUUGCAAUCCAUCAAGAGUCCUUUGAUCCGCUCGUGAAACUUCUCUCUGUACAAGUUGAAGUACAUAAUGCUUUCUGGCUCUUCCUCAAGCCAAAACUUGUCAAAUUCAUACAACAGAGGAUUGAGCAUCA
B21: chr7:91030085:91030086:-_ENSMUSG00000070462_ENSMUST00000094216|mus_hu|motif|central (ssRNA)
RNA: GGGAGUUCUACAGUCCGACGAUCAAAUACUCCAGUACAUGCAAGGUAAAAACUUGACGUUGGGGGAAAAAAAAAUCACUCGGUAGUGUAAAUUAAAAAAACACACGCUCACAGUAGCUUCCCCCCAUUUGCAAAUCACAUGGCCAACAGAGGAUUGAGCAUCA
B22: chr7:135612270:135612271:-_ENSG00000105887_ENST00000393085|hu_mus|hu_hu_hu_mus_False|28_48 (ssRNA)
RNA: GGGAGUUCUACAGUCCGACGAUCGUUUUUUUCUGAGAUGUUAAAUAGUACUUCAGUGGAAAACAAAACUUAACCUUUUAUUAAUGCAUGUAGUACCAAAAGCAGACCAUGGUUUUACAUUUAUUCAAAAAUAUUAACAUUAAGCAACAGAGGAUUGAGCAUCA

The list shows a part of the results.

The assay addresses T1, UNK ZnF1-3. The assay can be described thus: nsRBNS (natural sequence RNA bind-n-seq); RBNS binding buffer (assumed for nsRBNS): 25 mM Tris pH 7.5, 150 mM KCl, 3 mM MgCl2, 0.01% Triton X-100, 500 ug/ml BSA, 20 U/ml SUPERase-In, 4 C; UNK is unkempt and MSI1 is Musashi-1; names of the RNAs are library labels; protein concentration not given here; high values mean tight binding.
B1 displayed a binding signal of 0.813 enrichment R.

For B2, the binding signal came out at 2.5 enrichment R.

B3 registered a binding signal of 0.839 enrichment R.

Consider B4, for which the binding signal was 1.02 enrichment R.

Turning to B5, the binding signal worked out at 0.576 enrichment R.

Molecule B6 returned a binding signal of 1.08 enrichment R.

In turn, B7 displayed a binding signal of 0.724 enrichment R.

For B8, the binding signal turned out to be 0.84 enrichment R.

Molecule B9 yielded a binding signal of 0.873 enrichment R.

B10 returned a binding signal of 0.452 enrichment R.

The molecule B11 gave a binding signal of 1.27 enrichment R.

For the molecule B12, the binding signal was 1.24 enrichment R.

Take B13: the binding signal is 1 enrichment R.

For the molecule B14, the binding signal was found to be 0.805 enrichment R.

Molecule B15 displayed a binding signal of 0.441 enrichment R.

B16 gave a binding signal of 1.82 enrichment R.

The molecule B17 yielded a binding signal of 2.15 enrichment R.

Regarding B18, the binding signal came out at 0.679 enrichment R.

On to B19, for which the binding signal is 0.882 enrichment R.

Molecule B20 registered a binding signal of 1.13 enrichment R.

Molecule B21 registered a binding signal of 1.77 enrichment R.

B22 registered a binding signal of 1.4 enrichment R.

The values above are taken from article PMC12136788.
